{
  "source": "the supplement of paper PMC11417369",
  "note": "± gives the standard deviation of the averaged measurements. This is one part of the list.",
  "data": [
    {"test_system": "PfAP2-I AP2 domain 3 (GST-tagged)", "assay": "gcPBM binding intensity (ln(normalized median fluorescence intensity)); higher = stronger DNA binding", "how_it_was_run": "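The binding buffer was 1× PBS containing 1% milk, 0.2 mg/ml BSA, 0.5% salmon testes DNA and 0.03% Triton X-100. In it, GST-tagged P. falciparum DNA-binding domains expressed in E. coli were applied for 1 h to an Agilent 4 × 180k array of primer-extended double-stranded 36-bp intergenic genomic probes plus negative controls. Binding intensity, read with Alexa488 anti-GST antibody and a 488 nm scan, is the highest Masliner-normalised natural-log median intensity across replicate spots of either probe orientation.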", "values": [
      {"sequence": "TTTTTTTTAGTATGAACACACATATATATTATAAAA [CACACA_site2935]", "gcPBM binding intensity (ln)": "7.69 ± 0.57"},
      {"sequence": "TATTAACAAAATATAGCACACATAAATATATATTTA [CACACA_site8005]", "gcPBM binding intensity (ln)": "8.465 ± 0.064"},
      {"sequence": "ATTATCCATGCATTTACACACACACTAAAAAAAATT [CACACA_site7848]", "gcPBM binding intensity (ln)": "8.73 ± 0.38"},
      {"sequence": "AATTAAATTTATATGAATGTCAATTATATTGTTATA [XGTACX_negctrl_site261]", "gcPBM binding intensity (ln)": "7.33 ± 0.4"},
      {"sequence": "ATGTATATATATTTGTGTACATATTTAGGAAATAAA [XGTACX_site2904]", "gcPBM binding intensity (ln)": "8.04 ± 0.33"},
      {"sequence": "TTGAATTAAAAACATACATGCATATATATATATATA [TGCATGCA_site319]", "gcPBM binding intensity (ln)": "9.36 ± 0.18"},
      {"sequence": "AAAAAGTTACATGGTGGTACTCAAATAAAATATTCT [XGTACX_site5993]", "gcPBM binding intensity (ln)": "7.78 ± 0.38"},
      {"sequence": "TTATAAAATGGGCAAACACACACAAAAAAAAGATAT [CACACA_site8476]", "gcPBM binding intensity (ln)": "8.2 ± 0.73"},
      {"sequence": "AATAAATTACTATGTACACACATAAGAGTATAAATA [CACACA_site6940]", "gcPBM binding intensity (ln)": "7.83 ± 0.26"},
      {"sequence": "GAAAGAATAAAATTTACACACATATATAAATACATA [CACACA_site5273]", "gcPBM binding intensity (ln)": "7.38 ± 0.49"},
      {"sequence": "AAATATTTTAACGAGAGTACATAATAACAATTTATG [XGTACX_site3865]", "gcPBM binding intensity (ln)": "7.67 ± 0.55"},
      {"sequence": "AAAAAAAAAAAATACACACACACATATATATATATA [CACACA_site731]", "gcPBM binding intensity (ln)": "9.75 ± 0.35"},
      {"sequence": "TTTTTTTTTTTTTATTGTACTAAATTATAGAGGGGA [XGTACX_site2609]", "gcPBM binding intensity (ln)": "8.15 ± 0.31"},
      {"sequence": "ATAAAACAACACACTTGTACTAATTTTTTTTTTTTT [XGTACX_site8377]", "gcPBM binding intensity (ln)": "7.75 ± 0.48"},
      {"sequence": "TGAATAAATAGACACACACACATATATAAATATGTA [CACACA_site6159]", "gcPBM binding intensity (ln)": "7.42 ± 0.35"},
      {"sequence": "TAATTTATAAGGTATAACAACAATTGCATCTATCAC [XGTACX_negctrl_site314]", "gcPBM binding intensity (ln)": "8 ± 0.24"},
      {"sequence": "GAAACGATTTAATACACACACGTATTATAGATATAT [CACACA_site6666]", "gcPBM binding intensity (ln)": "7.87 ± 0.47"},
      {"sequence": "TTTTTTTTTTTTTTGACACACATAATAAAATACAAA [CACACA_site3080]", "gcPBM binding intensity (ln)": "8.17 ± 0.83"},
      {"sequence": "AATAAGCATATACAAACATGCATACATATAAATAAA [TGCATGCA_site338]", "gcPBM binding intensity (ln)": "7.76 ± 0.46"},
      {"sequence": "TATATATTTGTAACGGGTACGTAGGTGTATATTCCA [XGTACX_site6028]", "gcPBM binding intensity (ln)": "8.58 ± 0.057"},
      {"sequence": "AGCCACGTGGTATATACACACATAATCAAATAAAAT [CACACA_site9364]", "gcPBM binding intensity (ln)": "7.89 ± 0.67"},
      {"sequence": "CTACATACAAGAATTAAACACACACTAATTATAAAT [CACACA_site8986]", "gcPBM binding intensity (ln)": "7.68 ± 0.53"},
      {"sequence": "CCTCAATATTCACATACACACAATATCATCGAAGTA [CACACA_site1676]", "gcPBM binding intensity (ln)": "7.83 ± 0.5"},
      {"sequence": "TTATAATTTTAATGTGCACACAATTAAAATATTATA [CACACA_site5172]", "gcPBM binding intensity (ln)": "10.79 ± 0.085"},
      {"sequence": "TGTAAGAAATTGAGCGCACACATACATCTGTGGGAT [CACACA_site4945]", "gcPBM binding intensity (ln)": "8.31 ± 0.61"},
      {"sequence": "TTTTGTTTATGTGTGCATTATATTATATTTTTTATT [TGCATGCA_negctrl_site146]", "gcPBM binding intensity (ln)": "10.9 ± 0.45"},
      {"sequence": "TATAAATAAATATACACACACACATATAAATATGTA [CACACA_site6504]", "gcPBM binding intensity (ln)": "7.61 ± 0.17"},
      {"sequence": "AATAAATATAGGTACACACACAAATATGTACATATC [CACACA_site6976]", "gcPBM binding intensity (ln)": "8 ± 0.4"},
      {"sequence": "AAAGAAAGGAATACGACACACAAAAAAAAAATATAT [CACACA_site1934]", "gcPBM binding intensity (ln)": "7.83 ± 0.76"},
      {"sequence": "TAGTTGCACATGTATACACACAAAAAATATTTTATG [CACACA_site475]", "gcPBM binding intensity (ln)": "8.64 ± 0.16"},
      {"sequence": "AAGTGGTTATAATCAACACACGTGGAATGTACTTTA [CACACA_site3700]", "gcPBM binding intensity (ln)": "7.85 ± 0.65"},
      {"sequence": "AAGAAACCATAATATGCATGCACATATTAATAAATA [TGCATGCA_site693]", "gcPBM binding intensity (ln)": "8.05 ± 0.69"},
      {"sequence": "TATAATATTATATATAAACACACATACACATGTAAA [CACACA_site8631]", "gcPBM binding intensity (ln)": "7.79 ± 0.49"},
      {"sequence": "AGAAAAGTTTAATACAGTACATAAACAAAGTATAGG [XGTACX_site2386]", "gcPBM binding intensity (ln)": "7.87 ± 0.6"},
      {"sequence": "GTATATTTATAGCCTTTATTATATTTAATATTATTA [TGCATGCA_negctrl_site26]", "gcPBM binding intensity (ln)": "7.74 ± 0.54"},
      {"sequence": "GTTATATTTTTTTATACACACTGGAATATATAAATA [CACACA_site4282]", "gcPBM binding intensity (ln)": "7.89 ± 0.38"},
      {"sequence": "TATTTATTGTGATACTACTATTATTTTATGATTAAA [CACACA_negctrl_site284]", "gcPBM binding intensity (ln)": "7.55 ± 0.35"},
      {"sequence": "ACCCAATTTTAAAATGAACACACATGTTTTTCTTAC [CACACA_site8246]", "gcPBM binding intensity (ln)": "8.13 ± 0.49"},
      {"sequence": "ATAATTATATATTTATGTACGCATAAATATTTATAT [XGTACX_site5765]", "gcPBM binding intensity (ln)": "7.83 ± 0.48"},
      {"sequence": "AACTATATCATTTATTTTATTTTTTAAATACATTTA [CACACA_negctrl_site183]", "gcPBM binding intensity (ln)": "7.59 ± 0.72"},
      {"sequence": "TATATATAACTTTATTGTACAAAATATTATGTATTC [XGTACX_site981]", "gcPBM binding intensity (ln)": "7.67 ± 0.34"},
      {"sequence": "TTATATTATTTTTAATGTACTTTTTATGAATACAAA [XGTACX_site689]", "gcPBM binding intensity (ln)": "7.78 ± 0.23"},
      {"sequence": "TATACAACTTTATGAAGTACAAAAAGTTCTATATAT [XGTACX_site3866]", "gcPBM binding intensity (ln)": "7.52 ± 0.44"},
      {"sequence": "AATATATGTATGTACGCATGTATGTATCTATGTATT [TGCATGCA_site389]", "gcPBM binding intensity (ln)": "8.02 ± 0.51"},
      {"sequence": "TTATAATTATATACATGTACATATAATACATATATA [XGTACX_site8904]", "gcPBM binding intensity (ln)": "7.71 ± 0.4"},
      {"sequence": "TGTAATAAATAGTACACACACACATATTTATATATC [CACACA_site6770]", "gcPBM binding intensity (ln)": "8.19 ± 0.2"},
      {"sequence": "ATATGGGTAATGAATTGTACTCTTTCTTGTTGTTCT [XGTACX_site4487]", "gcPBM binding intensity (ln)": "7.83 ± 0.61"},
      {"sequence": "GTATAATTTTCGTATTCACACAAGAATATACTACAT [CACACA_site4877]", "gcPBM binding intensity (ln)": "7.88 ± 0.52"},
      {"sequence": "AAAAACAGAAATGTAACACACAAAAATTCTATTTAT [CACACA_site4026]", "gcPBM binding intensity (ln)": "7.58 ± 0.61"},
      {"sequence": "TTTTGTTATAAATAATGTACATATTTATTTAAAATT [XGTACX_site6610]", "gcPBM binding intensity (ln)": "7.69 ± 0.38"},
      {"sequence": "TCTATAAAGGAATATACACACATATATAAATATGTA [CACACA_site6332]", "gcPBM binding intensity (ln)": "7.37 ± 0.37"},
      {"sequence": "AACCTTTATATGTAAAGTACAAAAAAGAGTAAAAAA [XGTACX_site5506]", "gcPBM binding intensity (ln)": "7.79 ± 0.71"},
      {"sequence": "TATAAAAATGTGCACACACACACATATTTATATTTA [CACACA_site6826]", "gcPBM binding intensity (ln)": "9.365 ± 0.007"},
      {"sequence": "TATATTATATACCATTGTACATATAATATAGGTTCT [XGTACX_site7047]", "gcPBM binding intensity (ln)": "7.58 ± 0.4"},
      {"sequence": "AAAATCATTCCAAAGACATGCATTTTGCAAATAAAA [TGCATGCA_site461]", "gcPBM binding intensity (ln)": "7.71 ± 0.69"},
      {"sequence": "ATTAATTATAATGTATGTACATAACTTTTTTATATT [XGTACX_site5784]", "gcPBM binding intensity (ln)": "7.76 ± 0.4"}
    ]}
  ]
}
